In article PMC13360575, “Replaying germinal center evolution on a quantified affinity landscape” (Cell, 2026):

How the values were obtained:
Assay in all cases: flow cytometry on cells; yeast-surface display deep mutational scanning (Tite-Seq): scFv library on S. cerevisiae AWY101, biotinylated CGG (IgY) at 10-fold steps from 10^-6 to 10^-13 M plus 0 M, PE-streptavidin, four FACS bins, barcode sequencing; Δaffinity = -Δlog10(KD) against the naive scFv; mean of two independent experiments
Conditions in all cases: one partner purified
clone 2.1 scFv N108LR = biological target: T1, clone 2.1 scFv N108LR (mouse)
T1 construct: as the VH of m4 (unmutated): VH of PDB 9ODB with the replacements of 2.1^hi reverted; IMGT numbering; scFv linker; as the Vkappa of m4 (unmutated) with N108R; source: yeast-surface display, S. cerevisiae AWY101 (pETcon vector), site-saturation library

clone 2.1 scFv Y38HE = biological target: T2, clone 2.1 scFv Y38HE (mouse)
T2 construct: as the VH of m4 (unmutated) with Y38E; IMGT numbering; scFv linker; as the Vkappa of m4 (unmutated): Vkappa of PDB 9ODB with the replacements of 2.1^hi reverted; source: yeast-surface display, S. cerevisiae AWY101 (pETcon vector), site-saturation library

clone 2.1 scFv Y42LN = biological target: T3, clone 2.1 scFv Y42LN (mouse)
T3 construct: as the VH of m4 (unmutated): VH of PDB 9ODB with the replacements of 2.1^hi reverted; IMGT numbering; scFv linker; as the Vkappa of m4 (unmutated) with Y42N; source: yeast-surface display, S. cerevisiae AWY101 (pETcon vector), site-saturation library

clone 2.1 scFv Y42LN, sequence (heavy, as listed by the source, chain 1 of 2): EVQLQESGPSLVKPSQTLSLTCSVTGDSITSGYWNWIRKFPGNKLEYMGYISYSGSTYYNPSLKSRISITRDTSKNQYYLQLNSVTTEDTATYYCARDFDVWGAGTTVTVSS
clone 2.1 scFv Y42LN, sequence (light, as listed by the source, chain 2 of 2): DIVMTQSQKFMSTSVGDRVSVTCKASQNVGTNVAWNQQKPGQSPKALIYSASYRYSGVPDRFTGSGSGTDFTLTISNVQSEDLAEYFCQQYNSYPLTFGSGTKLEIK
clone 2.1 scFv N108LR, sequence (light, as listed by the source, chain 2 of 2): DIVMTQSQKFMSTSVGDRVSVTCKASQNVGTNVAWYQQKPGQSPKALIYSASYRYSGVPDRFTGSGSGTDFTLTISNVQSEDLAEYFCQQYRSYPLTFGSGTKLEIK
clone 2.1 scFv Y38HE, sequence (heavy, as listed by the source, chain 1 of 2): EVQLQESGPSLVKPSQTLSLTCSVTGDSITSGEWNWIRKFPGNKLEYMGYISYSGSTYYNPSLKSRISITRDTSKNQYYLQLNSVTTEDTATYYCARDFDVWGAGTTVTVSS
clone 2.1 scFv Y38HE, sequence (light, as listed by the source, chain 2 of 2): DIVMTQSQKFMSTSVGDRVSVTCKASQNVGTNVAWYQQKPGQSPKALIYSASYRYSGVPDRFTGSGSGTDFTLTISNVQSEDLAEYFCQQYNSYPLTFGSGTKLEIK

B1: chicken IgY (natural protein)
chain: AVTLDESGGGLQTPGGTLSLVCEGSGFTFSSFHMQWVRQALGKGLEWVAGISGSGKYTSYGAAVKGRATISRDNGQSTVRLQLNNLKAEDTGTYYCTRSSCGGCCDWSPYTTGCGAYSTGTIDAWGHGTEVIVSSASPTSPPRLYPLSACCSDSAVPPAVGCLLSPSSAGGISWEGSGGTAVAGRVSGTPVKLSFVRLSPGEKRKSFVCSAAPGGALLKKEVQVCRVDPVPPVAPEVQVLHPSSCTPSQSESVELLCLVTGFSPASAEVEWLVDGVGGLLVASQSPAVRSGSTYSLSSRVNVSGTDWREGKSYSCRVRHPATNTVVEDHVKGC[about 250 residues not given here]
modifications: biotin (biotinylated CGG, Exalpha IgY-B, in the yeast-display assay)
Δaffinity (-Δlog10(KD) against the naive 2.1 scFv) (clone 2.1 scFv N108LR): 0.91 log10 | Δaffinity (-Δlog10(KD) against the naive 2.1 scFv) (clone 2.1 scFv Y38HE): -3 log10 | Δaffinity (-Δlog10(KD) against the naive 2.1 scFv) (clone 2.1 scFv Y42LN): 0.26 log10
